Measurements reported in PubChem BioAssay AID624417 (National Center for Advancing Translational Sciences (NCATS), 2012).
Screen size: about 410,000 compounds; about 6,400 (1.6%) were called active. Inconclusive results, whose numbers are uncertain, are shown with a selection of clear calls. Calls follow the shape of the dose curve; as a rule, active = well fitted inhibition curve with a large enough effect; inconclusive = small, poorly fitted or top-dose-only effect; inactive = no such curve, though single readings can be large or run the other way. A potency beside an inconclusive call is a rough fit, not a confirmed value.

target: Glucagon-like peptide 1 receptor (Homo sapiens) (UniProt P43220); assay: qHTS of GLP-1 Receptor Inverse Agonists (Inhibition Mode); settings: HEK293 GLP-1R CRE-luciferase, luminescence, 24 h, GLP-1R form is constitutively active; activity change, negative = inhibition: at 38.3 µM (top of the series) unless noted; also: nearly all actives have a fitted effect of over 55% in size
Sequence of UniProt P43220 (P43220 whole entry, looked up): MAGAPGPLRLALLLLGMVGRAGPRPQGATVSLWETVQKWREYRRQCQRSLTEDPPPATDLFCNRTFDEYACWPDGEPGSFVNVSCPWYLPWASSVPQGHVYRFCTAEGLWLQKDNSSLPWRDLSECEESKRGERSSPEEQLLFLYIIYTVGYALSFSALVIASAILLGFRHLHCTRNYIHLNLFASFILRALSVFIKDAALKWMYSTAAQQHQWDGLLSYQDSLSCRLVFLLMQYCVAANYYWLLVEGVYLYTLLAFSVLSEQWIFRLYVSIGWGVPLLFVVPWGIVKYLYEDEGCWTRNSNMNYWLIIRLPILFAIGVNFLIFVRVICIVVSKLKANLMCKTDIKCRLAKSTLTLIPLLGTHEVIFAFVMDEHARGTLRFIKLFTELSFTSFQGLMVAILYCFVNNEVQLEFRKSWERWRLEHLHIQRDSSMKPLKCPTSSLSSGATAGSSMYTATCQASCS
Outline: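 Luminescence readout: a drop in cAMP-driven luciferase signal flags inverse agonism at a constitutively active GLP-1R stably expressed in HEK293. Compound exposure lasted 24 hr at 37 deg C, 5% CO2.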
% is scaled to controls: 0 for no effect and ±100 for the full control effect; potency is read from the fitted curve at half-maximal effect; tags tell the direction and shape of the fitted curve.

Potency, inconclusive:
Cc1ccc(SCC(=O)N2N=CCC2c2ccccc2)cc1 (configuration not stated) 28.2 µM [inhibitor, single point]
Cc1ccc(C)c(Nc2c([N+](=O)[O-])c(=O)oc3ccccc23)c1 14.1 µM [inhibitor, partial curve, poor fit]
CCCCn1cnc2c(SCc3ccc(Br)cc3)nc(N)nc21 28.2 µM [inhibitor, single point]
COc1ccc(OC)c(NC(=O)Nc2nc(C(N)CCc3ccccc3)cs2)c1 (configuration not stated) 10 µM [inhibitor, single point]
CCOC(=O)c1ccc(NC(=O)COc2ccc(CNC3CCCCC3)cc2OC)cc1 10 µM [inhibitor, partial curve, poor fit]
CCC1=Nc2cc(C(=O)NCCCN3CCOCC3)ccc2Sc2ccccc21 10 µM [inhibitor, partial curve, poor fit]
O=C(O)c1cccc(NC(=O)c2cccc(S(=O)(=O)N3CCCCC3)c2)c1 10 µM [inhibitor, single point]
O=C(N/N=C/c1ccccn1)c1ccc2nc[nH]c2c1 10 µM [inhibitor, single point]
CCC1Oc2ccccc2N(CC(=O)NC2CCCCC2)C1=O (configuration not stated) 28.2 µM [inhibitor, single point]
Cc1c(C(=O)NCCSCc2ccccc2)cccc1[N+](=O)[O-] 11.2 µM [inhibitor, single point]
CC(C)NCCCOc1ccc(C(C)(C)c2ccccc2)cc1 28.2 µM [inhibitor, single point]
CCN(CC)C(=O)c1sc(NC(=O)C(C)Sc2nc(-c3ccccc3)cc(C(F)(F)F)n2)c(C(=O)OC)c1C (configuration not stated) 1.41 µM [inhibitor, full curve, poor fit]
CCc1ccc(NC(=O)c2ccc(-n3cncn3)c([N+](=O)[O-])c2)cc1 28.2 µM [inhibitor, single point]
Cc1nc2nc(Cc3ccccc3)[nH]n2c(=O)c1Cc1ccccc1 10 µM [inhibitor, single point]
Cc1oc(-c2cccc3ccccc23)nc1CN1CCN(c2ncnc3ccccc23)CC1 12.6 µM [inhibitor, partial curve, poor fit]
COc1ccc(CN(C)C(=O)CNC(=O)c2sc3ccccc3c2Cl)c(OC)c1 28.2 µM [inhibitor, single point]
Cc1cc(NC(=O)c2c(F)cccc2Cl)n(-c2nc3ccccc3[nH]2)n1 28.2 µM [inhibitor, single point]
CCN(C(=O)COC(=O)c1ccc2[nH]c3c(c2c1)CCCC3)C1CCS(=O)(=O)C1 (configuration not stated) 12.6 µM [inhibitor, partial curve, poor fit]
CCC(C)(C)NC(=O)c1ccc(S(=O)(=O)N2CCCCCC2)cc1 22.4 µM [inhibitor, single point]
Cc1cc2c3c(c1)C(C)(c1ccccc1)CC(C)(C)N3C(=O)C21C(C#N)=C(N)OC2=C1C(=O)CC(C)(C)C2 (configuration not stated) 28.2 µM [inhibitor, single point]
CCOC(=O)c1[nH]c(C)c(/C(O)=C2\C(=O)C(=O)N(CCCN3CCOCC3)C2c2cccs2)c1C (configuration not stated) 11.2 µM [inhibitor, single point]
CCCc1cc(C(=O)Nc2c(C)nn(Cc3ccc(C)cc3)c2C)no1 14.1 µM [inhibitor, single point]
Cc1ccc(Cl)c2sc(NC(=O)C3=COCCO3)nc12 28.2 µM [inhibitor, single point]
Cc1cc(C(=O)N/N=C/c2ccc(-c3cccc(Cl)c3)o2)n[nH]1 28.2 µM [inhibitor, single point]
Cc1cc(C(=O)NNc2cc(Cl)ccc2Cl)no1 0.891 µM [inhibitor, full curve, poor fit]
CC(C)(C)c1ccc(/C=N/NC(=S)NCc2ccccc2)cc1 22.4 µM [inhibitor, single point]
COc1ccc(OC)c2sc(N(CCN(C)C)C(=O)/C=C/c3cccs3)nc12 28.2 µM [inhibitor, single point]
O=C(CSc1ncnc2sc3c(c12)CCCCC3)NCc1ccco1 6.31 µM [inhibitor, partial curve]
Cc1nn(Cc2ccc(F)cc2Cl)c(C)c1[N+](=O)[O-] 31.6 µM [inhibitor, partial curve, poor fit]
CN(CC(=O)Nc1ccc(Cl)c(C(F)(F)F)c1)C(=O)Cc1cccs1 14.1 µM [inhibitor, partial curve, poor fit]

Potency, active:
CCOC(=O)C1=C(CNCc2ccc(C)cc2)NC(=O)NC1c1ccc(OC)cc1 (configuration not stated) 12.6 µM
Cc1ccc(C)c(NC(=S)NNC(=S)Nc2ccc(C(C)C)cc2)c1 3.55 µM

Activity change, negative = inhibition, inactive:
CN(C)c1oc(/C=C/c2ccc(F)cc2)nc1C#N 1.67%
CC(=O)C1=C(O)C(=O)N(c2ccc(Br)cc2)C1c1ccccc1[N+](=O)[O-] (configuration not stated) -13.9%
CCOC(=O)c1c(-c2ccccc2)csc1NC(=O)c1nc(S(=O)(=O)CC)ncc1Cl 16%
C/C(=N\NC(=O)NC1CCCCC1)c1ccc(Cl)s1 29.2%
Cc1ccccc1-n1c(=S)[nH]c2nc3c(cc2c1=O)CCCC3 22.4%
Oc1ccc(N=Nc2ccccc2-c2nn[nH]n2)c(O)c1 15.9%
Cc1cc(C)nc(NC(=S)NC(=O)c2ccccc2F)n1 14.9%
CCn1cc(S(=O)(=O)CC(=O)Nc2ccc3c(c2)OCCO3)c2ccccc21 -1.39%
COc1ccccc1NC(=O)Cn1c(=O)n(-c2ccc(C)cc2)c(=O)c2ccc(C(=O)NCc3ccco3)cc21 -2.19%
CC(=O)N/N=C/c1c(C)[nH]n(-c2ccccc2)c1=O 11.3%
